From PubChem BioAssay AID1745853 (National Center for Advancing Translational Sciences (NCATS), 2022)
This is one part of the list. These are further read-outs of the screen, such as a control signal, another cell line or another target. No call is given for them.

How the values were obtained:
Assay in all cases: Primary Screen for Target Class Profiling of Small Molecule Inhibitors of Methyltransferases
[1] = biological target: Guanidinoacetate N-methyltransferase (Homo sapiens) (UniProt Q14353); conditions: purified enzyme, MTase-Glo SAH luminescence; measured here: GAMT inhibition; at 40 µM; stronger effect = lower value
Method in brief: (§1)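 Each enzyme was reacted with SAM and its substrate, with compounds tested once at 40 uM; SAH formed was read by MTase-Glo luminescence.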

[2] = biological target: Nicotinamide N-methyltransferase (Homo sapiens) (UniProt P40261); conditions: purified enzyme, MTase-Glo SAH luminescence; measured here: NNMT inhibition; at 40 µM; stronger effect = lower value
Method in brief: as §1

[3] = biological target: Phenylethanolamine N-methyltransferase (Homo sapiens) (UniProt P11086); conditions: purified enzyme, MTase-Glo SAH luminescence; measured here: PNMT inhibition; at 40 µM; stronger effect = lower value
Method in brief: as §1

[4] = biological target: Glycine N-methyltransferase (Homo sapiens) (UniProt Q14749); conditions: purified enzyme, MTase-Glo SAH luminescence; measured here: GNMT inhibition; at 40 µM; stronger effect = lower value
Method in brief: as §1

[5] = biological target: Histamine N-methyltransferase (Homo sapiens) (UniProt P50135); conditions: purified enzyme, MTase-Glo SAH luminescence; measured here: HNMT inhibition; at 40 µM; stronger effect = lower value
Method in brief: as §1
% is scaled to controls: 0 for no effect and ±100 for the full control effect.

Compound	activity change, negative = inhibition [1] [%]	activity change, negative = inhibition [2] [%]	activity change, negative = inhibition [3] [%]	activity change, negative = inhibition [4] [%]	activity change, negative = inhibition [5] [%]
O=C(O/N=C1\c2ccccc2-c2nc3ccccc3nc21)c1ccco1	-8.87	-22.8	-12.8	–	–
OC[C@@H]1O[C@H](CNCc2ccc(F)cc2)[C@H](N2CCCC2)[C@@H]1O	-5.6	-5.89	-14.8	-5.04	-2.07
NC/C=C\C(=O)O	10.6	-7.87	-19	-27.2	6.42
NC(=O)c1cccc(-c2cc(Nc3ccc(OC(F)(F)F)cc3)ncn2)c1	5.86	-23.9	-3.7	-6.08	1
Cc1cc(C)c(CNC(=O)c2cc(-c3ccc(CN4CCOCC4)cc3)cc3c2cnn3C2CCCC2)c(=O)[nH]1	14.9	-7.14	2.47	-12.3	3.37
C=C1CCC2(OC1)OC1CC3C4CC=C5CC(O)CC(O[C@@H]6OC[C@@H](O)[C@H](O)[C@H]6O)C5(C)C4CCC3(C)C1(O)C2C (some centres undefined)	14.9	-1.77	8.85	0	11.5
CO[C@H]1CN(C2CCN(C(=O)C3CCN(C(C)=O)CC3)CC2)[C@H]1c1ccncc1	-1.17	-2.45	-1.72	-4.18	-1.21
CCOc1cccc(CN2CCc3c(c(CN(C(C)=O)c4ccccc4)nn3C)C2)c1O	-4.05	-7.94	-8.7	-8.13	-2.52
CC1CCC(NC(=O)C2(C)Cn3c(cc4sccc43)C(=O)N2CCc2ccccc2)CC1 (centres undefined)	4.33	2.06	-4.6	-1.46	-0.086
CCOC(=O)c1cc2n(n1)CC(C)(C(=O)NC1CCCCC1)N(c1ccccc1C)C2=O (centres undefined)	0	11.2	5.51	3.3	-3.09
Cc1cccc(-c2n[nH]n3c2nc(=O)c2ccc(C(=O)NCCc4ccc(Cl)cc4)cc23)c1	1.9	-9.95	-4.26	-9.56	-4.49
COc1ccc(CCN2C(=O)c3cc4occc4n3CC2(C)C(=O)NC2CCCCC2)cc1OC (centres undefined)	-3.4	-33.6	1.36	-1.67	6.1
C[C@@H]1O[C@@H](O[C@H]2[C@H](O[C@H]3[C@H](O)[C@@H](C(=O)O)O[C@@H](O[C@H]4CC[C@@]5(C)C(CC[C@]6(C)C5CC[C@]57OC[C@@]8(CCC(C)(C)CC85)[C@H](O)C[C@]76C)C4(C)C)[C@@H]3O[C@@H]3O[C@H](CO)[C@@H](O[C@@H]4OC[C@@H](O)[C@H](O)[C@H]4O)[C@H](O)[C@H]3O)O[C@H](CO)[C@H](O)[C@@H]2O)[C@H](O)[C@H](O)[C@H]1O (some centres undefined)	5.86	-4.19	9.26	1.67	6.23
COC(=O)CC1OC(C)C2=C(O)c3c(O)cccc3C(=O)C23OC13 (centres undefined)	-24.1	-21.9	-70	-78.1	-2.31
Cc1ccc(CNC(=O)Cn2nc3n(Cc4ccccc4)c(=O)c4ccccc4n3c2=O)cc1	2.17	0.706	4.04	8.28	9.46
CC(CN1C(=O)c2cc3ccccc3n2CC1(C)C(=O)NC1CCCCC1)c1ccccc1 (centres undefined)	0	2.84	-2.64	1.09	-0.775
CC(=O)c1cc(C(=O)NCc2c(C)ncc3c2CCNC3)[nH]n1	-8.56	-11.4	-10.7	-7.62	-5.44
CC(O)C(O)/C=C/C=C/C(=O)O[C@@H]1C=C(C(=O)O)[C@](O)(CO)[C@@]2(C)CCCC(C)(C)[C@H]12 (some centres undefined)	-3.57	-14.7	-11.3	-3.55	4.22
CNC(=O)[C@@H]1CN(C(=O)c2ccc(F)c(Cl)c2)C[C@H]1COC	-6.5	-8.67	-5.69	-7.3	-3.57

Compound	activity change, negative = inhibition [1] [%]	activity change, negative = inhibition [2] [%]	activity change, negative = inhibition [3] [%]	activity change, negative = inhibition [4] [%]	activity change, negative = inhibition [5] [%]
Cc1ccc(C)c(N2C(=O)c3cc(C(C)(C)C)nn3CC2(C)C(=O)NC2CCCCC2)c1 (centres undefined)	2.61	0.501	-0.509	-4.44	-2.38
CC(c1cccs1)N(C)Cc1ccncc1 (centres undefined)	-5.09	-8.57	0.339	-4.58	-5.11
CC1(CO)CC2C(O)C3=C(CC(C)(O)C2C1)C(=O)OC3 (centres undefined)	0.588	-11.9	-6.21	-3.16	5.43
CC(=O)OCC1=CCC2C(C)(C)CCCC2(C)C12CCC(C)(CC(=O)O)O2 (centres undefined)	3.57	-13.3	-2.4	2.88	8.42
CCC(C)NC(=O)c1ccc2c(=O)n(C)c3nn(Cc4ccccc4F)c(=O)n3c2c1 (centres undefined)	1.06	-1.8	5.27	5.53	10.9
CC1(C)C2CC(OC3OC(COC4OCC(O)(CO)C4O)C(O)C(O)C3O)C1(C)CC2O (centres undefined)	-19.3	-28	-3.84	-6.88	-2.75
NCCCC(=O)O	0.039	-7.48	0.75	7.27	8.74
Cc1ccc(-c2nn(C(C)(C)C)c3ncnc(N)c23)cc1	-11.8	-35.5	-5.32	–	–
Cn1c(=O)c2ccc(C(=O)NC3CCCCC3)cc2n2c(=O)n(CC(=O)Nc3ccc(F)cc3)nc12	-1.33	-4.03	-6.58	-4.07	-1.43
CCCCCCOC(=O)NC(=N)c1ccc(NCc2nc3cc(C(=O)N(CCC(=O)OCC)c4ccccn4)ccc3n2C)cc1	1.51	-29.4	-3.48	–	–
Cc1ccc(OCCC2CCN(C(=O)c3cc(CN4CCOCC4)on3)C2)cc1 (centres undefined)	0.486	-3.16	1.04	-2.5	-0.833
CC(C)Cn1c(=O)c2ccc(C(=O)NC3CCCC3)cc2n2c(=O)n(CC(=O)NC(C)(C)C)nc12	0	2.31	3.22	3.97	5.88
Cc1cc(Nc2ncc3cc(-c4c(Cl)cccc4Cl)c(=O)n(C)c3n2)ccc1F	-22.5	-32.5	-9.23	2.19	5.08
CCN1CCC(N2CCCC(N3CCN(c4cccc(Cl)c4)CC3)C2)CC1 (centres undefined)	-0.4	1.41	0.589	-1.79	-1.56
CC(C)CCC[C@@H](C)[C@H]1CC[C@H]2[C@@H]3CC(=O)[C@H]4C[C@@H](O)CC[C@]4(C)[C@H]3CC[C@]12C	-2.29	-9.65	0.119	-11.1	3.63
COc1cc(OC)c(NC(=O)N2CCn3c(C)ccc3C2C(C)C)cc1Cl (centres undefined)	2.33	-9.33	-6.48	-3.34	-17.8
CN(C)c1ccc2ncc(Nc3ccc(Cl)cn3)n2n1	-2.18	-6.89	-4.41	-12	-20
C=CC(C)(CC/C=C(\C)C(=O)OC)OC1OC(COC(=O)CC(C)(O)CC(=O)O)C(OC2OC(CO)C(O)C(O)C2O)C(O)C1O (centres undefined)	6.57	-7.27	5.35	0	5.62
